Experimental data as given in patent US20140294758A1 (published 2014).

Tests used:
[1] = biological target: T1, intermediate affinity IL2 receptor on TF-1β cells (UniProt P14784 27-551; P31785 23-369); assay: cell-based or functional assay
T1 sequence (looked up) 1: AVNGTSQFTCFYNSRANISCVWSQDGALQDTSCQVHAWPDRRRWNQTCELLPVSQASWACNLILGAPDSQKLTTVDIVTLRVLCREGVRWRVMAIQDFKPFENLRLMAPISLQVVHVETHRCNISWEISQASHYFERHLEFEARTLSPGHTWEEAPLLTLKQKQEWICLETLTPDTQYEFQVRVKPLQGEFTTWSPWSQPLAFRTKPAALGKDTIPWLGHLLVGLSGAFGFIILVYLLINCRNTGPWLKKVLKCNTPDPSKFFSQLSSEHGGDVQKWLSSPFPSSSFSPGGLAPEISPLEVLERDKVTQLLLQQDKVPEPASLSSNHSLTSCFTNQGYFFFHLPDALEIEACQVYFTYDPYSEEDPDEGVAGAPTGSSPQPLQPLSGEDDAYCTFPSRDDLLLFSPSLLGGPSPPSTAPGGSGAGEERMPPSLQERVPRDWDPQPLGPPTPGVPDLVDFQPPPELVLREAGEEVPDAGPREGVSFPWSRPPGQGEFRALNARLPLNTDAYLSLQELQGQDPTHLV
T1 sequence (looked up) 2: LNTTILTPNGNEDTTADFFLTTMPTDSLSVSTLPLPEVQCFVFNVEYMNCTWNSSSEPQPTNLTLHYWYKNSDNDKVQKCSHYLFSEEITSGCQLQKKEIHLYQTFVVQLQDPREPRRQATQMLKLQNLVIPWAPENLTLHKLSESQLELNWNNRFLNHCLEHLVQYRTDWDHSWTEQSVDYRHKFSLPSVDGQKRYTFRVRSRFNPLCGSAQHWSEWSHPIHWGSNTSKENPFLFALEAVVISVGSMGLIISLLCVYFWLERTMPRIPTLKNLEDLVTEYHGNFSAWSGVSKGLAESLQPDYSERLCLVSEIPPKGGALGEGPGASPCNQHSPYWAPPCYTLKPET

[2] = biological target: T2, high affinity IL2 receptor on CTLL-2 mouse T cells (mouse, UniProt P01590 22-268; P16297 27-539; P34902 23-369); assay: cell-based or functional assay
T2 sequence (looked up) 1: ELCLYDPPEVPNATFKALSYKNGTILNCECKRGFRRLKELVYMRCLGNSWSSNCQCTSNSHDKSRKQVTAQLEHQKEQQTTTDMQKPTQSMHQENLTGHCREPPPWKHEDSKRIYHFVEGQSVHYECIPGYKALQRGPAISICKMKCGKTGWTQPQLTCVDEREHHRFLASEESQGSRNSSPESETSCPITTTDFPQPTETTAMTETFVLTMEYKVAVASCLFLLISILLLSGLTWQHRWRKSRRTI
T2 sequence (looked up) 2: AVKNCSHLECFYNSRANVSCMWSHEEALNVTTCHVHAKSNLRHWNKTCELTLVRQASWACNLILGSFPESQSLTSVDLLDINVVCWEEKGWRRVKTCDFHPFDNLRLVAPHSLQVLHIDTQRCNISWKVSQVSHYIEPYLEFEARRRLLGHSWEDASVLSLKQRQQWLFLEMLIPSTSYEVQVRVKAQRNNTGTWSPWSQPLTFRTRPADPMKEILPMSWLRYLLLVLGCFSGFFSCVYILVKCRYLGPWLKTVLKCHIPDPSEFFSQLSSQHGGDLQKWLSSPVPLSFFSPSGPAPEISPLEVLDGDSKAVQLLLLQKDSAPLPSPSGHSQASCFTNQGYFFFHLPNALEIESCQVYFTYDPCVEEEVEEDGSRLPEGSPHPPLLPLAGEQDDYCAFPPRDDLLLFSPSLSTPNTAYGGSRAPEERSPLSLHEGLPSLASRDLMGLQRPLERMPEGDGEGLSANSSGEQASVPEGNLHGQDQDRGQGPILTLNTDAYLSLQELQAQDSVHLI
T2 sequence (looked up) 3: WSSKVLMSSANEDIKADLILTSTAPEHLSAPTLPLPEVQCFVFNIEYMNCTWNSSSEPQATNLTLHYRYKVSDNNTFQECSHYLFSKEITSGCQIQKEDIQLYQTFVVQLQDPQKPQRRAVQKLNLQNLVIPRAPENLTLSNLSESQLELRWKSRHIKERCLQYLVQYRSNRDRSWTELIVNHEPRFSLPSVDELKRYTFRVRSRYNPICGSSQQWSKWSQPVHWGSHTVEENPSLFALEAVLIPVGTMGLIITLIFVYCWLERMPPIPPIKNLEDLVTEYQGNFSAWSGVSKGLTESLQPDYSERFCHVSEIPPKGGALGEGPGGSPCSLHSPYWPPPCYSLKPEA

B1: 14.18-IL2-L containing SEQ ID NO: 3 (other)
light: EIVMTQSPATLSVSPGERATLSCRSSQSLVHRNGNTYLHWYLQKPGQSPKLLIHKVSNRFSGVPDRFSGSGSGTDFTLKISRVEAEDLGVYFCSQSTHVPPLTFGAGTKLELKRTVAAPSVFIFPPSDEQLKSGTASVVCLLNNFYPREAKVQWKVDNALQSGNSQESVTEQDSKDSTYSLSSTLTLSKADYEKHKVYACEVTHQGLSSPVTKSFNRGECQRVD[about 150 residues not listed]
VH: EVQLLQSGPELEKPGASVMISCKASGSSFTGYNMNWVRQNIGKSLEWIGAIDPYYGGTSYNQKFKGRATLTVDKSSSTAYMHLKSLTSEDSAVYYCVSGMEYWGQGTSVTVSS
Relative Activity High aff/Inter Aff (intermediate affinity part) [1]: 0.8 | TF-1β (Int aff) ED50 [1]: 10 ng/mL | Relative Activity High aff/Inter Aff (high affinity part) [2]: 1 | Selectivity for High Affinity Receptor [2]: 1.25
